Among all 340,000 compounds or so, about 12,000 (3.5%) were called active. The shares of active, inactive and inconclusive entries below differ from those in the screen. Calls follow the shape of the dose curve; as a rule, active = well fitted inhibition curve with a large enough effect; inconclusive = small, poorly fitted or top-dose-only effect, or another doubt; inactive = no such curve, though single readings can be large or run the other way. Potencies of inconclusive entries are left out as doubtful fits.
Test: qHTS Assay for Inhibitors of Hepatitis C Virus (HCV)
Settings: Huh7.5.1 HCVcc-Cre (HCVcc is cell-culture hepatitis C virus) infection, luciferase reporter, 44 h; activity change, negative = inhibition: at 41.8 µM (top of the series)
Outline: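 Seed cells (1,000/well) for 4 h; treat with compound and infect with HCVcc-Cre, moi about 0.5. Incubate 44 h, then detect luciferase activity.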
% is scaled to controls: 0 for no effect and ±100 for the full control effect; potency is read from the fitted curve at half-maximal effect; tags tell the direction and shape of the fitted curve.

| SMILES | Potency | activity change, negative = inhibition |
| --- | --- | --- |
| COc1ccc(N(Cc2cc(=O)[nH]c3ccccc23)C(=O)CCl)cc1 | inconclusive [inhibitor, full curve] | – |
| CCCCN(C)C(=O)C1CCCN(S(=O)(=O)c2ccc3c(c2)CC(C)N3C(=O)C2CC2)C1 (configuration not stated) | inactive | – |
| O=C(Nc1cccc(S(=O)(=O)NC2=NCCCCC2)c1)c1cc(-c2ccccc2Cl)nc2ccccc12 | inconclusive [inhibitor, partial curve] | – |
| CCCn1nnc(NC(=O)c2ccc(-c3ccccc3)cc2)n1 | inconclusive [inhibitor, partial curve] | – |
| Oc1ccccc1CNc1cnc2ccccc2c1 | inconclusive [inhibitor, single point] | – |
| O=C(Nc1csc(Cl)c1)c1ccccc1 | inactive | – |
| Cc1ccc(C(=O)N2CCN(Cc3ccc4c(c3)OCO4)CC2)cc1S(=O)(=O)N1CCOCC1 | inconclusive [inhibitor, single point] | – |
| CN(C(=O)c1ccc(NC(=O)Cc2ccc(NC(=O)C3CCCN(C(=O)C4CCCC4)C3)cc2)cc1)C1CC1 (configuration not stated) | inconclusive [inhibitor, full curve] | – |
| N=C1/C(=C/c2cccn2Cc2ccc(Cl)cc2)C(=O)N=C2SC=CN12 | inconclusive [inhibitor, partial curve] | – |
| CCn1c(C(=O)N2CCC(C(=O)NCc3ccc4c(c3)OCO4)CC2)cc2sccc21 | inconclusive [inhibitor, single point] | – |
| Cc1ccc(-c2nc3ccccc3s2)cc1NC(=S)NC(=O)/C=C/c1ccco1 | inconclusive [inhibitor, single point] | – |
| COc1ccc(OC)c(NC(=O)C2COc3ccccc3O2)c1 (configuration not stated) | inconclusive [inhibitor, single point] | – |
| CCCC(=O)Nc1cccc(-c2nc3ccccc3o2)c1 | inconclusive [inhibitor, single point] | – |
| COC(=O)c1ccc2c(c1)c(C#Cc1ccccc1)c(-c1ccccc1)n2C | inconclusive [inhibitor, partial curve] | – |
| CC12CCC(C(NC(=S)NN)C1=O)C2(C)C (configuration not stated) | inactive | – |
| Cc1cccc(NC(=O)CCOc2ccccc2)c1 | inconclusive [inhibitor, single point] | – |
| CCOc1ccc(OCCCC(=O)Nc2cc(Cl)ccc2-n2cncn2)cc1 | inconclusive [inhibitor, partial curve] | – |
| CC(C)[N+]1(C)[C@@H]2CC[C@@H]1CC(OC(=O)C(CO)c1ccccc1)C2 (some centres not stated) | inactive | – |
| CCn1c(NCc2ccccc2NS(=O)(=O)c2ccc(C)cc2)nc2ccccc21 | active: 14.1 µM | – |
| Cc1sc2nc(C3CC3)nc(NCCNS(C)(=O)=O)c2c1C | inconclusive [inhibitor, partial curve] | – |
| Cc1ccccc1NC(=S)N/N=C/C(C)c1ccccc1 (configuration not stated) | inactive | – |

| SMILES | Potency | activity change, negative = inhibition |
| --- | --- | --- |
| O=C(CSC(=S)N1CCCCC1)Nc1ncc2c(n1)CC(c1ccco1)CC2=O (configuration not stated) | inconclusive [inhibitor, single point] | – |
| O=C(C[N+]1(CC#Cc2ccccc2)CCOCC1)c1ccccc1 | inactive | – |
| O=C(Nc1cccc(-c2ccc(N3CCCCC3)nn2)c1)c1ccc(Br)o1 | inconclusive [inhibitor, partial curve] | – |
| C[C@]12CCC(=O)C=C1CC[C@@H]1[C@@H]2CC[C@@]2(C)[C@H]1CC[C@]2(O)C(=O)CO | inconclusive [inhibitor, partial curve] | – |
| COc1ccc(COc2ccc(C3C(S(=O)(=O)c4ccccc4)CON3C)cc2OC)cc1 (configuration not stated) | inconclusive [inhibitor, single point] | – |
| CCOc1ccc(C(=O)Nc2cc(-c3nc4ccccc4[nH]3)ccc2C)cc1[N+](=O)[O-] | inconclusive [inhibitor, partial curve] | – |
| COc1ccccc1N(CC(=O)Nc1ccc2c(c1)OCCO2)S(=O)(=O)c1ccc(C)cc1 | inconclusive [inhibitor, single point] | – |
| O=C(NCCc1c[nH]c2ccccc12)C(=O)NCC1OCCCN1S(=O)(=O)c1ccccc1 (configuration not stated) | inconclusive [inhibitor, single point] | – |
| Cc1cccc(-c2ccc3c(c2)C2CC3CCN2)c1 (configuration not stated) | – | inactive: -4.51% [at 8.37 µM] |
| Cc1c(OCC(=O)NCC(O)c2ccccc2)ccc2c3c(c(=O)oc12)CCC3 (configuration not stated) | inconclusive [inhibitor, partial curve] | – |
| Nc1cc(N)cc(C(=O)OCC(=O)Nc2cc(S(=O)(=O)N3CCCCC3)ccc2Cl)c1 | inconclusive [inhibitor, single point] | – |
| CCc1ccc(NC(=O)COc2ccc(F)cc2C(=O)c2cnn(-c3ccccc3)c2)cc1 | inconclusive [inhibitor, single point] | – |
| CCC/C(=C1/c2ccccc2C(=O)N1c1ccccc1)c1ccc2[nH]ccc2c1 | inconclusive [inhibitor, partial curve] | – |
| C#CCOCCOCCOCCNc1nc(N2CCOCC2)nc(N2CCN(C(=O)[C@H](CC(N)=O)n3cc([C@@H](N)C(C)C)nn3)CC2)n1 | inactive | – |
| CC(C)NC(=O)C1CCN(C2CCN(CC3CC=CCC3)CC2)CC1 (configuration not stated) | inconclusive [inhibitor, partial curve] | – |
| O=C(NCC1CCCO1)c1cc(-c2ccccc2)nc2ccc(Br)cc12 (configuration not stated) | inconclusive [inhibitor, single point] | – |
| Cc1noc(C)c1COC(=O)C(c1ccccc1)c1ccccc1 | inactive | – |
| COc1ccc(C(=O)CSc2nnc(CN3CCCCC3)n2-c2ccc(Cl)cc2)cc1OC | inconclusive [inhibitor, partial curve] | – |
| CCOC(=O)N1CCc2c(sc3nc4n(c(=O)c23)N=C(c2ccc(OC)cc2)CS4)C1 | inactive | – |
| COc1ccc2cc(C(c3nnnn3CCc3ccccc3)N3CCC(O)CC3)c(=O)[nH]c2c1 (configuration not stated) | inactive | – |
| COc1ccc2[nH]c3c(c2c1)CCN1C(=O)C(CC(=O)NCc2cccc(C(F)(F)F)c2)C[C@H](C(=O)N2CCCCC2)[C@@]31C (some centres not stated) | active: 11.2 µM | – |
